We go through 57 sequences from the supplement of paper PMC11417369.

± gives the standard deviation of the averaged measurements. The list shows a part of the results.

The assay relates to PfAP2-I AP2 domain 3 (GST-tagged). In words: gcPBM binding intensity (ln(normalized median fluorescence intensity)); higher = stronger DNA binding. An outline of the steps:
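An Agilent 4 × 180k array carrying primer-extended double-stranded 36-bp intergenic genomic probes and negative controls received GST-tagged P. falciparum DNA-binding domains expressed in E. coli, about 25 μg on average, for 1 h. The binding buffer contained 1× PBS, 1% milk, 0.2 mg/ml BSA, 0.5% salmon testes DNA and 0.03% Triton X-100. Binding intensity is the top Masliner-normalised natural-log median intensity across replicate spots of either probe orientation, read after Alexa488 anti-GST antibody staining and a 488 nm scan.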
On to “AACATATAAATGATATGTACACACATTTATATATAT [XGTACX_site7364]”, for which the “gcPBM binding intensity (ln)” value came to 8.34 ± 0.75.

Regarding “CAAATTAAATATTATGCATGTACCAAACATCCTACC [TGCATGCA_site35]”, the “gcPBM binding intensity (ln)” value was determined as 8.1 ± 0.5.

As to “TTTAATATGTATTTTTTTTTTTTTTTTTTTTTTTTT [XGTACX_negctrl_site440]”, the “gcPBM binding intensity (ln)” value amounted to 9.96 ± 0.13.

Turning to “TATAACAGGAATTATATATATATATATATATATTAT [CACACA_negctrl_site911]”, the “gcPBM binding intensity (ln)” value was found to be 8.17 ± 0.64.

Take “CTTTTTTTAGTTAGGTGTACAATTTGTTATTATTAG [XGTACX_site1507]”: the “gcPBM binding intensity (ln)” value turned out to be 8.18 ± 0.26.

For “TTTTTTTTTTTTTTTTGTACATATTTCTTATAAGTG [XGTACX_site6459]”, the “gcPBM binding intensity (ln)” value turned out to be 8.13 ± 0.61.

As for “CATAGGATTATACTTTTGGAATATTATTAAATATGT [XGTACX_negctrl_site75]”, the “gcPBM binding intensity (ln)” value came out at 7.41 ± 0.52.

Regarding “TTTATTTTTTAATGTTGTACAATGTTGTTTAATCAA [XGTACX_site6489]”, the “gcPBM binding intensity (ln)” value came to 7.88 ± 0.26.

Take “TTTTTTTCTTTTCAAACACACAATTGGTATATATTA [CACACA_site3320]”: the “gcPBM binding intensity (ln)” value was 7.8 ± 0.57.

Regarding “TCATCCGTTTTAAGAAGTACATATTTGAACATATAA [XGTACX_site8040]”, the “gcPBM binding intensity (ln)” value came out at 7.76 ± 0.29.

“ACATGTCAAACATTTGCACACAAAAAAATAAAAATT [CACACA_site691]”: the “gcPBM binding intensity (ln)” value is 9.43 ± 0.18.

For “TATATATATATGTGCACACATATATAATATGTATAA [CACACA_site715]”, the “gcPBM binding intensity (ln)” value came to 10.1 ± 0.42.

Consider “AAATAACACATATATACACACATATAACTATAATAT [CACACA_site7298]”, for which the “gcPBM binding intensity (ln)” value was determined as 7.83 ± 0.54.

Turning to “TATATACAAAAATGCACACGAAAAGTAATATATATA [CACACA_site4173]”, the “gcPBM binding intensity (ln)” value amounted to 9.04 ± 0.83.

Regarding “TATATAAAAATCAATTGTACTTTTTTTTTTTTTTTT [XGTACX_site7327]”, the “gcPBM binding intensity (ln)” value came to 8.68 ± 0.42.

As for “ATATATAAAATTATATGTACATATATAATATATATA [XGTACX_site529]”, the “gcPBM binding intensity (ln)” value was determined as 8.28 ± 0.33.

For “TAGAACAAATAAAACACACACATATATATATATATG [CACACA_site2768]”, the “gcPBM binding intensity (ln)” value is 8.06 ± 0.41.

“ATTAAAAACGGGTGTACACATATATAAATATATATA [CACACA_site4539]”: the “gcPBM binding intensity (ln)” value was 8.21 ± 0.57.

In the case of “AGTAGCATATTCTATTGTACATATATATATATATAT [XGTACX_site2980]”, the “gcPBM binding intensity (ln)” value came out at 9.39 ± 0.61.

Turning to “TGTATAAAGATATATACACACATATTTATTTATATA [CACACA_site6493]”, the “gcPBM binding intensity (ln)” value was found to be 7.52 ± 0.35.

With “TACAAAATAACTAGCACACATATGTATAAACCTATA [CACACA_site3718]”, the “gcPBM binding intensity (ln)” value turned out to be 8.01 ± 0.29.

“ATATGTATATATGTATGTACGTACAAATTGTTGTAA [XGTACX_site8832]”: the “gcPBM binding intensity (ln)” value was found to be 8.46 ± 0.042.

As to “TTAATACATTAAATATGTACTTATATATCTCAACTA [XGTACX_site3997]”, the “gcPBM binding intensity (ln)” value is 7.53 ± 0.48.

Regarding “ACCTGAAGAGTCAAACGTACAAATATTATAAAATGA [XGTACX_site3188]”, the “gcPBM binding intensity (ln)” value came to 7.69 ± 0.45.

As to “GTTATATTTTTTTTTTGTACATAATATTGTATTGAC [XGTACX_site6338]”, the “gcPBM binding intensity (ln)” value turned out to be 8.18 ± 0.61.

As to “TATAAATACAGATACACACACACACCGATATATATA [CACACA_site5271]”, the “gcPBM binding intensity (ln)” value came to 8.24 ± 0.62.

On to “AATATATAAATCTATTGTACATAAAGAGGATAATAA [XGTACX_site1022]”, for which the “gcPBM binding intensity (ln)” value stood at 7.92 ± 0.47.

As to “GATGATTATATATATACGCACACTTTTTTTTTTTTT [CACACA_site2652]”, the “gcPBM binding intensity (ln)” value was found to be 8.37 ± 0.45.

Take “ATCACAAAATGGAATGTTCTATGATATATATGTATA [XGTACX_negctrl_site460]”: the “gcPBM binding intensity (ln)” value worked out at 7.45 ± 0.41.

On to “TGTAAATATTTATTCACACATAATCAATTAGAAAAA [CACACA_site5944]”, for which the “gcPBM binding intensity (ln)” value was 7.54 ± 0.65.

Regarding “TACTTACTTACTTACTCACACACATATACAAAGAAA [CACACA_site3348]”, the “gcPBM binding intensity (ln)” value amounted to 8.59 ± 0.59.

“TATATATATTTTTATGCACACACAAAGAAAATTTTC [CACACA_site8931]”: the “gcPBM binding intensity (ln)” value was determined as 10.1 ± 0.24.

As for “AATACAGATAATACAACACACAAGTAATATAAACCT [CACACA_site5900]”, the “gcPBM binding intensity (ln)” value amounted to 7.82 ± 0.61.

On to “TTGTTACTGTTTTGGTGTACAAAAAAAAAAAATATA [XGTACX_site5762]”, for which the “gcPBM binding intensity (ln)” value is 8.02 ± 0.54.

With “AAAAAAAAAAAAAACACACACACAATAGTATATAAA [CACACA_site957]”, the “gcPBM binding intensity (ln)” value was found to be 8.22 ± 0.54.

For “AATATAAATAAAAACACACACAATGGTACATATATA [CACACA_site3671]”, the “gcPBM binding intensity (ln)” value was 7.84 ± 0.54.

In the case of “ATTGCAAGTTACTTGTGTACTTATAAGATTAAAAGA [XGTACX_site7696]”, the “gcPBM binding intensity (ln)” value came out at 8.28 ± 0.28.

With “TAATAATACCCAAGCACACACACACCCATATATATA [CACACA_site4831]”, the “gcPBM binding intensity (ln)” value turned out to be 8.3 ± 0.63.

As for “TTTAAATCGTTAAAAACACACAAAAAAAATCAATTA [CACACA_site2519]”, the “gcPBM binding intensity (ln)” value was found to be 7.49 ± 0.47.

In the case of “TACTGTGATAGCACCACACACGCAAAAGTGGGTATA [CACACA_site4749]”, the “gcPBM binding intensity (ln)” value was found to be 9.55 ± 0.34.

For “TCTATACCAGAAAAGGGTACATATTTTGGATTGAAC [XGTACX_site8402]”, the “gcPBM binding intensity (ln)” value worked out at 7.72 ± 0.61.

On to “ATTATGCACCAACACACACACACACTCCTAAAAAAT [CACACA_site8822]”, for which the “gcPBM binding intensity (ln)” value was 11.4 ± 0.95.

Consider “TTTCTTTTAATAATTAAATATTTATTTATGATTATA [TGCATGCA_negctrl_site30]”, for which the “gcPBM binding intensity (ln)” value turned out to be 7.55 ± 0.51.

“TACATACATATATTATGTACATATTTTATTTTTATT [XGTACX_site1642]”: the “gcPBM binding intensity (ln)” value is 7.72 ± 0.27.

On to “AAGCATACATCAAGCACACACACACCCACAGAGACA [CACACA_site4362]”, for which the “gcPBM binding intensity (ln)” value came to 8.33 ± 0.21.

As to AAAAAAAATTCGTGTGTGCGCATATATAATATATAA, the “gcPBM binding intensity (ln)” value was determined as 8.46 ± 0.56.

Consider “TATGTAGTTTTAAAGTGTACTTATATATATTAATTG [XGTACX_site378]”, for which the “gcPBM binding intensity (ln)” value amounted to 7.76 ± 0.23.

Consider “ATAAATATATATATCACACATATATAATTATATATA [CACACA_site4787]”, for which the “gcPBM binding intensity (ln)” value amounted to 7.88 ± 0.51.

Regarding “ATAATAAAAATATATACATGCATTATTATATATATA [TGCATGCA_site799]”, the “gcPBM binding intensity (ln)” value was determined as 8.54 ± 0.32.

Take “CAACAATTTCGTCATACACACATTCAGAATATAGAT [CACACA_site7166]”: the “gcPBM binding intensity (ln)” value is 7.61 ± 0.57.

Take “TTATTTCGAAGAAAATGTACATATATAAATATATAC [XGTACX_site3308]”: the “gcPBM binding intensity (ln)” value was 7.46 ± 0.39.

For the sequence “ATAATATTTTTTAATTGTACGTTCCATTTTTTTAAA [XGTACX_site1227]”, the “gcPBM binding intensity (ln)” value was 7.9 ± 0.65.

Consider “GATAATTACGGACACACACACACACGCACAACTAAA [CACACA_site7254]”, for which the “gcPBM binding intensity (ln)” value was 8.62 ± 0.17.

As for “ACTATCATTCATAGGTGTACCTAAATATATATATAT [XGTACX_site1696]”, the “gcPBM binding intensity (ln)” value came out at 9.12 ± 0.39.

As to “CGAATATATTCTAGACGTACTATATAATATATATAT [XGTACX_site4953]”, the “gcPBM binding intensity (ln)” value was 8.765 ± 0.049.

For TCTTTTTCTTCTTATGTGCACATCAATTATGCTTCT, the “gcPBM binding intensity (ln)” value is 9.49 ± 0.17.

In the case of “AGAACAATTCTGTGGTGTACCAAAAAAAATTTAATT [XGTACX_site8082]”, the “gcPBM binding intensity (ln)” value was determined as 7.96 ± 0.64.
